Measurements: the BET-seq Pho4 binding data (Le et al. 2018)
This is one part of the list. Values were computed here from the reads of four pooled replicates and scatter widely.

These sequences were tested against T1, Pho4 (S. cerevisiae) (UniProt P07270) (assay: relative binding free energy (BET-seq); higher = weaker binding). Conditions: reference: library average.
T1 sequence: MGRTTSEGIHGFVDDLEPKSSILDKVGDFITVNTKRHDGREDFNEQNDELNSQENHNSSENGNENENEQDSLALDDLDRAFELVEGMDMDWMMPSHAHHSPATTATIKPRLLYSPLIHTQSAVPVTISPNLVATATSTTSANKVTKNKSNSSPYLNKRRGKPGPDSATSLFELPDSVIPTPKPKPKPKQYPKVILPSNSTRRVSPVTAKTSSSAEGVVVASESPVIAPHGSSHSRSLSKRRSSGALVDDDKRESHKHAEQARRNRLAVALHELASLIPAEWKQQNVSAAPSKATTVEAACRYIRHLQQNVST

Row | Sequence | relative binding free energy
1 | TGGGCCACGTGGCGAG | -0.2 kcal/mol
2 | TGGCTCACGTGTTTTA | 0.26 kcal/mol
3 | TTATTCACGTGCTTGC | 0.14 kcal/mol
4 | TTTGGCACGTGCCGTG | -0.1 kcal/mol
5 | GAGGACACGTGAGGGT | 0.39 kcal/mol
6 | TGGAGCACGTGGTTTA | 0 kcal/mol
7 | ATCTTCACGTGGTATT | 0.34 kcal/mol
8 | GGGATCACGTGAGGGT | 0.38 kcal/mol
9 | CGGTGCACGTGGCTGG | -0.06 kcal/mol
10 | GAGATCACGTGTGGTT | 0.34 kcal/mol
11 | GGGTGCACGTGAGTGT | 0.25 kcal/mol
12 | GGCAACACGTGGGTAT | -0.05 kcal/mol
13 | TGTTCCACGTGAAGGC | 0.45 kcal/mol
14 | ATTTGCACGTGCGAGT | 0.07 kcal/mol
15 | GGGGTCACGTGGTGGG | 0.15 kcal/mol
16 | GGGTGCACGTGCTGCT | -0.16 kcal/mol
17 | ATGAGCACGTGGATCG | -0.03 kcal/mol
18 | TGGCTCACGTGGGTTA | 0.04 kcal/mol
19 | TTATACACGTGGCATG | -0.07 kcal/mol
20 | AATAGCACGTGTGGAG | 0.05 kcal/mol
21 | AATGACACGTGGGGGG | -0.03 kcal/mol

Row | Sequence | relative binding free energy
22 | ATTTTCACGTGTATTA | 0.1 kcal/mol
23 | AGGAGCACGTGATGGA | 0.21 kcal/mol
24 | GATCACACGTGTGTTT | 0.3 kcal/mol
25 | CGTTGCACGTGGTCGG | -0.22 kcal/mol
26 | CTGATCACGTGGGTTT | 0.03 kcal/mol
27 | AAGGTCACGTGGTATA | 0.01 kcal/mol
28 | CGGTCCACGTGGGTGA | -0.07 kcal/mol
29 | CTGGCCACGTGGGGGC | -0.25 kcal/mol
30 | GGATGCACGTGAGGCT | 0.16 kcal/mol
31 | TAATGCACGTGGGCTT | -0.17 kcal/mol
32 | CTGGGCACGTGGGATT | -0.12 kcal/mol
33 | TGTTACACGTGCAGTT | 0.15 kcal/mol
34 | AAACGCACGTGGGAGG | -0.18 kcal/mol
35 | ATTTACACGTGAATAA | 0.47 kcal/mol
36 | CCGGTCACGTGGTTTT | 0.13 kcal/mol
37 | CTGGTCACGTGTTTGT | 0.09 kcal/mol
38 | CGTTTCACGTGGGCTA | 0.2 kcal/mol
39 | GCGTTCACGTGGTAAG | 0.19 kcal/mol
40 | CGTCTCACGTGAAGGG | 0.38 kcal/mol
41 | GAAGTCACGTGTAGGG | 0.21 kcal/mol
42 | CGATTCACGTGGAGAG | 0.42 kcal/mol

Row | Sequence | relative binding free energy
43 | GTTGCCACGTGGGGTA | -0.34 kcal/mol
44 | GTTTTCACGTGATTGT | 0.44 kcal/mol
45 | GGAGACACGTGATTTG | 0.23 kcal/mol
46 | GGGTTCACGTGGCGCG | 0.23 kcal/mol
47 | ATTTCCACGTGGTGGT | -0.07 kcal/mol
48 | GTATTCACGTGTATTT | 0.24 kcal/mol
49 | TTAGACACGTGGTTTC | -0.01 kcal/mol
50 | GTCTTCACGTGTGGTG | 0.32 kcal/mol
51 | GGGGACACGTGGCGAA | 0.04 kcal/mol
52 | TGTGACACGTGCGTTA | -0.18 kcal/mol
53 | TATGTCACGTGATTGG | 0.21 kcal/mol
54 | TTCAGCACGTGTAGTA | -0.01 kcal/mol
55 | AGCGACACGTGGTGCG | -0.01 kcal/mol
56 | AGAGGCACGTGGCGTG | -0.21 kcal/mol
57 | TGTCTCACGTGGGGGC | 0.11 kcal/mol
58 | TTAGGCACGTGGGCTA | -0.22 kcal/mol
59 | TTTGTCACGTGGGGGG | 0.01 kcal/mol
60 | CATAGCACGTGGGAGT | -0.17 kcal/mol
61 | TATTGCACGTGGAATA | 0.01 kcal/mol
62 | GTTGGCACGTGGGAGG | -0.11 kcal/mol
63 | TAGCGCACGTGGGGGT | -0.22 kcal/mol
